Measurements taken from the supplement of paper PMC3334620.
In all, about 33,000 sequences were measured (“E-score (-0.5 to 0.5)”: median about -0.035, highest 2% from about 0.35 on). The list shows a part of the results.

Target: T1, Pdr3 (UniProt P33200)
T1 sequence: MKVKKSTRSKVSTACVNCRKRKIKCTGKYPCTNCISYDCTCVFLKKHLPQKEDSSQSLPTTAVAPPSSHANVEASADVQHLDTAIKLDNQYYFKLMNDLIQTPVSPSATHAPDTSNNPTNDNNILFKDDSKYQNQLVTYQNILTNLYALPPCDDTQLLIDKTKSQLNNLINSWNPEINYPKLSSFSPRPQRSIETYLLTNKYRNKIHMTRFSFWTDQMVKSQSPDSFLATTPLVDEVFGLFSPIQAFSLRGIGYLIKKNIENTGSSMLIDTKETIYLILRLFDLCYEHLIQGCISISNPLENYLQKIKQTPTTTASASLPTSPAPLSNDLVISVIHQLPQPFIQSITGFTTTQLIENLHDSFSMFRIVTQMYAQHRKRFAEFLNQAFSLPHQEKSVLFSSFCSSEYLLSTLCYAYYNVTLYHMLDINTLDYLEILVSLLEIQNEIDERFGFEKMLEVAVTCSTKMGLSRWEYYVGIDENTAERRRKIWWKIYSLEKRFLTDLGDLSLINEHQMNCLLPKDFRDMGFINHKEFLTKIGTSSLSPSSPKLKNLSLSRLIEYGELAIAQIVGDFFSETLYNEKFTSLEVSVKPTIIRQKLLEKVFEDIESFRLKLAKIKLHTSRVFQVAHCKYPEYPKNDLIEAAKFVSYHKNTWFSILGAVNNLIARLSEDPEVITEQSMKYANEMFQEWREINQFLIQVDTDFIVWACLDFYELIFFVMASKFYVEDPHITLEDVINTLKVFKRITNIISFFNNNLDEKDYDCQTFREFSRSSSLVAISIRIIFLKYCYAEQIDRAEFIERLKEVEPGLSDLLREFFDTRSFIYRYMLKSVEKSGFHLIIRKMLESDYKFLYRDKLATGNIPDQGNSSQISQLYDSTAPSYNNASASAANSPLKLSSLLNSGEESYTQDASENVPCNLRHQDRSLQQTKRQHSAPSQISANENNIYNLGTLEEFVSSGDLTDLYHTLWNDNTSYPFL
Assay: PBM E-score (8-mer binding enrichment) (E-score (-0.5 to 0.5)); higher = stronger / more preferred TF binding; most listed sequences are background and not binding sites
Conditions: protein concentration: 200 nM; construct: GST-full length
How it was run: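 Universal all-10-mer Agilent arrays, double-stranded by primer extension on fresh or once-stripped slides, were probed with about 100-200 nM GST-tagged yeast transcription factors made by PURExpress. Fluorescent anti-GST detected bound protein, and masliner normalised the scans. E-scores from the Universal PBM Analysis Suite were given to each ungapped eight-base word pooled with its reverse complement.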

Row | Sequence | PBM E-score
1 | AGTTCCTC | -0.0381
2 | AAATCAGC | 0.0841
3 | GAACAATC | 0.114
4 | CATGCAGG | -0.0784
5 | CTTCGCCC | 0.0168
6 | AGTGATGC | -0.186
7 | GTTGAATA | -0.0132
8 | AGATACAC | -0.0369
9 | ACCGGGCT | 0.0718
10 | GCCGATCA | 0.0413
11 | GATTCGAA | 0.191
12 | ACTAATTA | -0.042
13 | CACCATCC | -0.0229
14 | CATCACAC | 0.00885
15 | AGATTGCT | -0.164
16 | GTCACGGA | 0.415
17 | CAGATTGG | -0.133
18 | ATATGAAC | -0.134
19 | ACCGGCAT | 0.23
20 | CCAGTGAC | -0.214
21 | CACAAATG | -0.314
22 | ACTAGACG | -0.154
23 | GCGGACCC | 0.336
24 | GTACGGCA | 0.0259
25 | CAACGGAA | 0.47

Row | Sequence | PBM E-score
26 | AAGAAGTA | 0.0061
27 | AAGATACA | -0.114
28 | ATATGGGG | -0.00732
29 | AGAGAGCG | -0.00106
30 | CACCAAGC | -0.0642
31 | CAGTCCCC | -0.173
32 | ATGGGGGC | -0.247
33 | GGTCTGTA | 0.164
34 | AAAGGCGC | -0.0133
35 | TCAAGTCA | -0.0922
36 | AACCAGGC | 0.0204
37 | TCGTGAGA | 0.0213
38 | CTCGCACC | -0.0701
39 | ACGTTTTC | 0.0552
40 | AAGAATTC | -0.0469
41 | GTCTGAAC | -0.146
42 | AAGGCGAA | -0.0355
43 | AGGCAACC | -0.0525
44 | ATTAAAAA | 0.0695
45 | GTCCGGCA | 0.295
46 | AATTGCGC | 0.262
47 | CATGGTAA | -0.119
48 | ACGTATAC | -0.104
49 | CTTTCCAC | 0.0771
50 | GGCTAGTA | 0.0699

Row | Sequence | PBM E-score
51 | AGTTAGGA | -0.165
52 | ACTTCCCG | 0.291
53 | ACCCTCGT | -0.0667
54 | CGTGGGCA | -0.167
55 | CGTATCGA | -0.144
56 | CCACTCGA | -0.0185
57 | AACATTGA | -0.126
58 | CGTGAGAA | -0.0443
59 | CGCGGGAC | 0.444
60 | CATGGCAC | 0.141
61 | CACTTCCG | 0.336
62 | AGGAATGA | -0.0139
63 | GTGCGACA | -0.0394
64 | AGTTAGTC | -0.0833
65 | ACGCAAGT | -0.255
66 | AACGAGTG | -0.207
67 | TAACAGGA | -0.0727
68 | ATACTCCG | 0.371
69 | GCCGATAC | 0.123
70 | CGAAATGC | 0.0935
71 | CACGCATC | 0.0112
72 | GCTAGTGA | -0.12
73 | CCGGTTAG | 0.23
74 | CGGCGCAG | 0.0101
75 | ACCCTCAT | -0.145

Row | Sequence | PBM E-score
76 | AGTACCAC | -0.167
77 | CTCCAAGA | -0.238
78 | CTGGAGTC | -0.147
79 | CTACCGAA | -0.0817
80 | CGCCTAAC | -0.081
81 | CAACAATA | 0.0309
82 | ACCCCCCT | -0.387
83 | TACTGTCA | -0.0263
84 | AGGATTCA | -0.108
85 | GCTGGGTA | -0.0815
86 | AACAGTAT | -0.148
87 | ACTTATGG | 0.01
88 | CCATTGAG | -0.019
89 | CCGATTTC | 0.193
90 | AACTTCTC | -0.154
91 | CCCCGCCC | 0.227
92 | ATACCAAA | -0.0555
93 | ATGCACTC | -0.0296
94 | ACAGATAG | -0.231
95 | ATTTCGTA | -0.0611
96 | GGAGTTTA | 0.0289
97 | AACGTTCC | 0.299
98 | CTTGAGAA | -0.384
99 | AAGTAAGT | 0.0143
100 | AACGGCAG | 0.162

Row | Sequence | PBM E-score
101 | ACTTATAC | 0.0789
102 | ATTGTGTC | 0.00304
103 | CAATTCTC | -0.138
104 | GATCTCGC | 0.0504
105 | CTGCCGCC | -0.0369
106 | GTTGCCTA | 0.0329
107 | CAAGTTGA | 0.00197
108 | GACCATCA | -0.0483
109 | AAAGTTAA | -0.0793
110 | TACTATGA | -0.0367
111 | AGTCGGAC | 0.117
112 | ATACCGCG | 0.352
113 | ATTTATTG | -0.0869
114 | ATAGAAAG | -0.0611
115 | GTTGGACA | -0.18
116 | GAGCGCTC | -0.055
117 | CCATTATA | 0.159
118 | ATGGTTTA | -0.00271
119 | CTCGTTGC | 0.0672
120 | TACTGGGA | 0.00434
121 | TGTGTTAA | -0.176
122 | AGCGAGGG | -0.318
123 | AGTGCGAC | 0.081
124 | CGAAAGAA | 0.0334
125 | ACCCGAGG | 0.163

Row | Sequence | PBM E-score
126 | CGTCTTGA | -0.0672
127 | AACAGAAA | -0.145
128 | ACGATGGC | -0.0785
129 | GTACAACA | -0.0511
130 | GTACACAA | -0.104
131 | CTATGACA | -0.14
132 | GCAGGAAC | -0.0174
133 | ATACATGC | -0.0713
134 | CGCGTTCA | 0.0334
135 | CATGCCGG | 0.36
136 | ATCAAAGG | -0.173
137 | ATGAGACC | 0.0286
138 | CAAGGGCA | -0.0651
139 | ACGCCATC | 0.0524
140 | CCACCGAA | -0.144
141 | ATTCATGA | -0.13
142 | AATTATCC | 0.128
143 | ACATGGTA | -0.0365
144 | TACATTAA | -0.00906
145 | AGATTTAG | -0.0838
146 | CTCTTGTC | -0.032
147 | ATGGCCAA | -0.0844
148 | GTGTAATA | 0.0133
149 | GCGGGCCA | 0.0261
150 | AGTAAATC | -0.0807

Row | Sequence | PBM E-score
151 | GGATAAGA | 0.0362
152 | AACACGCC | -0.0215
153 | GAAATGTC | -0.0586
154 | AAGATTGA | -0.131
155 | GAATAGTA | -0.0424
156 | CGTATCCA | -0.0807
157 | CTAAGAAG | -0.0671
158 | CAAACCCA | 0.0119
159 | GAGCGACC | -0.0396
160 | CACTCCCG | 0.197
161 | CGGACAAG | 0.265
162 | CTCTCTGC | -0.0361
163 | ACCCACGT | -0.0848
164 | AAACGGTA | 0.172
165 | ATCGTTGA | -0.0121
166 | AGCATTAG | -0.0829
167 | ATCGTCAA | -0.0359
168 | CACCTTAG | -0.142
169 | ACGGACTC | 0.205
170 | GCAACCCC | 0.0189
171 | ACTGAGAA | -0.121
172 | ATGACGAG | -0.0951
